ChEMBL document CHEMBL4888484, “Replenishing the malaria drug discovery pipeline: Screening and hit evaluation of the MMV Hit Generation Library 1 (HGL1) against asexual blood stage Plasmodium falciparum ,using a nano luciferase reporter read-out” (2022)
Hit rate of the full screen: of about 150,000 compounds, about 540 (0.36%) showed an effect of 50% or more. Some of the results follow.

Tested on: Plasmodium falciparum
Assay: Primary screen in NF54 nanoGlo assay, in single point, at 2uM, 72h; a lower Z score goes with more inhibition
Assay type: functional, Erythrocyte
Details: timepoint 72 hour

| SMILES | % Inhibition [%] | Z score |
| --- | --- | --- |
| COc1ccnc(C(=O)NC(c2ccccn2)[C@H]2C[C@H](O)C2)c1 (some centres undefined) | -6 | 0.7 |
| Cc1nc(-c2cccc(CNc3nnc(C)c(C)n3)c2)cs1 | -5 | 0.93 |
| CCOc1cccc(CCNC(=O)c2cn[nH]c2C)n1 | 5 | -0.74 |
| COc1cc(C(=O)N[C@H]2CC[C@@H](C(=O)N3CCOCC3)C2)ccn1 | -1 | 0.16 |
| O=C(NCc1ccc(F)cc1)N1CC[C@@H]2COC(=O)N(Cc3ccccc3)[C@@H]2C1 | -14 | 1.82 |
| Cc1nc(N2CCN(Cc3ccoc3)[C@@H](CCO)C2)c2cnn(C)c2n1 | 5 | -0.88 |
| CC(NC(=O)C1CC2CCC1O2)c1ccon1 (centres undefined) | 2 | -0.36 |
| COc1ccc(OC)c(-c2ccc(C(=O)N3C[C@@H](C)O[C@@H](C)C3)c(N3CCN(C)CC3)n2)c1 | 1 | -0.19 |
| COC(C)(C)c1noc(-c2cnn(CC(C)C)c2C(F)F)n1 | -12 | 1.36 |
| COc1cc2cc(c1)C(=O)NCCCC(=O)N[C@H]1CN(C(=O)c3noc4c3CCCC4)CC[C@@H]1OCc1cccc(c1)O2 | -6 | 1.16 |
| Cc1nc(CN2CCC(N3C[C@H](COc4ccc(F)cc4)OCC3=O)CC2)no1 | 8 | -0.77 |
| Cc1ccoc1C(=O)NCCCNC(=O)NCc1nccs1 | -6 | 0.95 |
| Cc1cc(N2CCN(C(c3ccccc3)c3ccccc3)CC2)n2nc(C(F)(F)F)nc2n1 | -7 | 0.82 |
| Cc1cccnc1NCCNc1nc2c(s1)c(C)nn2C | -6 | 0.99 |
| CC(C)(C)c1nnc(CN2CCC[C@@H]2CN2CCCC2)o1 | -16 | 3.04 |
| CCNC(=O)N1CCC[C@H](n2c(=O)n(C)c3cncnc32)C1 | -8 | 0.78 |
| CCOC[C@H]1CCN(C(=O)c2cccc3c2C(=O)OC3(C)C)C1 | -9 | 1.48 |
| COC(=O)c1cc(C(=O)OC)c(C(=O)OC)c(-c2c(-c3ccccc3)c(C)c3ccccn23)c1C(=O)OC | -12 | 2.22 |
| Cc1cccc(N(C)C(=O)c2c(C)oc3ncn(C)c(=O)c23)c1 | -3 | 0.43 |
| CC(C)OCc1ccccc1NC(=O)[C@H](O)c1ccccc1 | -14 | 1.22 |
| COC[C@H](C)N(C)C(=O)c1ccc(-c2ccc3c(c2)OCCO3)s1 | -28 | 5.25 |

| SMILES | % Inhibition [%] | Z score |
| --- | --- | --- |
| Cc1noc(C)c1CC(=O)N1CC(F)(F)C[C@H]1Cn1cc(C(=O)N2CCOCC2)nn1 | 27 | -3.1 |
| CC(C)Cc1ccc([C@@H](N)c2cccs2)cc1 | -7 | 0.91 |
| O=C1NC(=O)C2(CCN(C(=O)C3CC4CCC3C4)CC2)N1 (centres undefined) | 35 | -0.89 |
| O=C(NCc1cccnc1N1CCN(c2ccccn2)CC1)c1cc(=O)[nH][nH]1 | 0 | -0.08 |
| NCC1CCN(C(=O)c2ccc(Oc3ccc(F)cc3F)cc2)CC1 | -10 | 1.18 |
| COc1cc(NC(=O)c2ocnc2C(F)F)c(C(=O)N2CCCC2)cc1OC | -16 | 2.84 |
| O=C(NS(=O)(=O)CCC1CCCC1)C1CC1C1CC1 (centres undefined) | -7 | 1.07 |
| Cc1nc2ccc(C(=O)N3CCC(=O)N(C)CC3)cc2o1 | 16 | -2.16 |
| CCC[C@H]1COCCN1C(=O)Nc1cc(C(=O)OC)cc(C(=O)OC)c1 | 2 | -0.24 |
| COCC(=O)N1CCN(c2nc3ccc(C)cc3c3nnc(C4CCCCC4)n23)CC1 | 3 | -0.3 |
| O=C(c1ccc2ccccc2c1)N1CCCN(C[C@H]2CN(C(=O)c3ccc4c(c3)OCO4)CCO2)CC1 | -5 | 0.6 |
| CC(C)c1nccc(CN2CC(c3cccnc3)C2)n1 | 7 | -1.28 |
| O=C(Cc1c[nH]c2ccccc12)NC1(c2ncccn2)CCOCC1 | -20 | 3.68 |
| Cc1cccc(-n2cnc(C(=O)NC3CCCCCC3)c2)n1 | -1 | 0.14 |
| Cn1nc(CNC(=O)c2cccc(Cl)c2)cc1-c1ccco1 | -18 | 2.03 |
| Cc1ccc2c(c1)OC=CC(C(=O)NC1CCCC1)=C2 | 0 | 0.04 |
| CN(Cc1nc(-c2cccs2)no1)C(=O)[C@H]1CCCN(S(C)(=O)=O)C1 | -12 | 1.64 |
| NC(=O)[C@@H]1C[C@@H](F)CN1C(=O)c1cnc(OCC2CC2)c(Cl)c1 | -12 | 1.71 |
| COc1ccccc1C1(CNC(=O)c2coc(Br)c2)CCOCC1 | 1 | -0.16 |
| O=c1[nH]c(NS(=O)(=O)c2ccccc2)nc2nc(-c3ccccc3)oc12 | -6 | 0.75 |
| O=C(c1cc(O)ccn1)N1CC(Cc2ccccc2)C1 | -7 | 1.31 |
